Measurements published in article PMC6919601, “Identification of Plasmodium dipeptidyl aminopeptidase allosteric inhibitors by high throughput screening” (PLoS ONE, 2019).
Out of some 110,000 compounds screened, about 230 (0.21%) showed an effect of 50% or more. This is one part of the list.

What follows are molecules tested against DPAP1 (Plasmodium falciparum, UniProt Q8IIJ9) (assay: primary screen, percent inhibition; read by cleavage of a fluorogenic dipeptide substrate; higher = more effect of the substance).
Sequence of DPAP1 (Q8IIJ9 whole entry, looked up): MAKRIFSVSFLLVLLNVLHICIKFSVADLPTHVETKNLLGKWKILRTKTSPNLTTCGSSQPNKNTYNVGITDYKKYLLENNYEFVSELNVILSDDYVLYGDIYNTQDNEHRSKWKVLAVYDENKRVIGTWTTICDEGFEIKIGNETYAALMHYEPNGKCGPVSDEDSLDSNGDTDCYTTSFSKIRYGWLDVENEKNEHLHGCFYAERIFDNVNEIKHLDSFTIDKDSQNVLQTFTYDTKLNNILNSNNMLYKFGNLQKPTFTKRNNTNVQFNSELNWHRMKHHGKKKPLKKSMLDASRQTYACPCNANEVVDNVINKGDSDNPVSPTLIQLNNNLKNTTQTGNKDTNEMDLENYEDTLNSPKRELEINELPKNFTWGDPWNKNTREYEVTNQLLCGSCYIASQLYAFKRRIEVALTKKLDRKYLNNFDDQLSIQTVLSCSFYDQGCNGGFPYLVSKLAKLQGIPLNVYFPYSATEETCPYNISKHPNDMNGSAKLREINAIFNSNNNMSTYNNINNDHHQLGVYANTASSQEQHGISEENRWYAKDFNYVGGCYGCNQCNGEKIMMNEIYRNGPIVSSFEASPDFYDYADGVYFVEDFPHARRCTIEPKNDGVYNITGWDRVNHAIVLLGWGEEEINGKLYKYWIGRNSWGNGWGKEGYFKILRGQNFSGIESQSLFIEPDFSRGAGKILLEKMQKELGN
Parameters: species or system P. falciparum D10 trophozoite lysates; single well
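Further: 30 min substrate incubation versus DMSO and 10 µM JCP410 controls.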

Going from `CCCCCOc1ccc(NC(=O)/C=C/C(=O)O)cc1` to `CCc1ccc(NC(=O)/C=C/c2cccc([N+](=O)[O-])c2)cc1`, the “% Inhibition @ 10 uM” value rises from 0.989% to 1.29%.

Going from `Cc1ccc(-n2nnc3c(=O)n(CC(=O)NCc4ccccc4)cnc32)cc1` to `Cc1ccccc1Cn1cnc2c(nnn2Cc2ccc(F)cc2)c1=O`, the “% Inhibition @ 10 uM” value rises from -5.79% to 4.22%.

Compared with `CC(C)C[C@@H](C(=O)NCC#N)c1cccc(-c2ccc([SH+](O)(O)N(C)CCN(C)C)cc2)c1`, `CC(C)CC(NC(=O)c1ccc(NC(=O)Nc2ccc(C(=O)NC(CC(C)C)C(=O)NCC#N)cc2)cc1)C(=O)NCC#N` (stereo not shown) is higher in “% Inhibition @ 10 uM” value: -3.25% for the first, 0.744% for the second.

First: CCc1[nH]nc2c1C(c1cccc(OCC(N)=O)c1)C(C#N)=C(N)O2 (stereo not shown)
Second: Cc1cccc(COc2cccc(C3(C)NC(=O)NC3=O)c2)c1 (stereo not shown)
The “% Inhibition @ 10 uM” value of the first is higher: 1.57% for the first, -5.49% for the second.

First: CCCCOc1ccc(CNCCCN(CC)CC)cc1OCC
Second: CCOc1ccc(NC(=O)C2=C(C)NC(=O)NC2c2ccc(OC)c(OC)c2)cc1 (stereo not shown)
The “% Inhibition @ 10 uM” value of the first is lower: -3.35% for the first, 12.1% for the second.

Going from `COc1cc(C(=O)NC(C)(C)C)cc(OC)c1OC` to `COc1ccc(C(=O)Nc2cccc(Cl)c2)cc1OC`, the “% Inhibition @ 10 uM” value rises from 0.755% to 3.03%.

Compared with `CC(=O)N1c2ccccc2N=C2CC(C)(C)CC(O)=C2C1c1ccccc1Cl` (stereo not shown), `CC1(C)CC(=O)C2=C(C1)N(c1ccc(O)cc1)C(=O)CC2c1ccccc1` (stereo not shown) is higher in “% Inhibition @ 10 uM” value: -5.62% for the first, -4.98% for the second.

First: CCNC(=O)CN(c1ccc(C(C)C)cc1)S(C)(=O)=O
Second: CC(C)c1ccc(S(=O)(=O)NC(C)(C)C)cc1
The “% Inhibition @ 10 uM” value of the first is lower: 0.793% for the first, 1.13% for the second.

Compared with `Cc1ccccc1C(=O)NCCSc1c(C)[nH]c2ccccc12`, `CCc1ccccc1NCC(O)COc1ccccc1` (stereo not shown) is higher in “% Inhibition @ 10 uM” value: -3.27% for the first, -1.07% for the second.

First: COC(=O)C1=C(C)N(CC(C)C)C(=O)/C1=C\c1cccc(OC)c1OC
Second: COCCCN1C(=O)/C(=C/c2ccc(CNS(=O)(=O)c3ccccc3)o2)C(C(=O)OC)=C1C
The “% Inhibition @ 10 uM” value of the first is higher: 3.43% for the first, 1.84% for the second.

Compared with `O=C(Nc1ccc(S(=O)(=O)Nc2ccc(F)cc2)cc1)C1CC1`, `O=S(=O)(NCCNS(=O)(=O)c1ccc(F)cc1)c1ccc(F)cc1` is lower in “% Inhibition @ 10 uM” value: -0.473% for the first, -6.57% for the second.

Compared with `O=C(Nc1ccc(F)c(F)c1)c1sc2ccccc2c1Cl`, `CC(=O)Nc1ccc(NC(=O)c2ccccc2F)cc1` is higher in “% Inhibition @ 10 uM” value: 1.27% for the first, 4.57% for the second.

Compared with `CN(C(=O)Cn1c(SCc2ccc(F)cc2)nc2ccncc21)C1CCCCC1`, `Cc1ccc2c(CNCC3CCCO3)c(C(=O)O)n(Cc3ccc(F)cc3)c2c1` (stereo not shown) is higher in “% Inhibition @ 10 uM” value: -7.93% for the first, 3.9% for the second.

First: Cn1ncc2c(=O)n(CC(=O)c3ccccc3)cnc21
Second: CC(=O)c1ccc(NC(=O)Cn2cnc3ccccc32)cc1
The “% Inhibition @ 10 uM” value of the first is higher: 2.33% for the first, 2.17% for the second.

First: CC(C)(C)c1ccc(S(=O)(=O)Nc2ccc(O)c(C(=O)O)c2)cc1
Second: COc1ccccc1NS(=O)(=O)c1ccc(C(C)C)cc1
The “% Inhibition @ 10 uM” value of the first is lower: 2.36% for the first, 2.78% for the second.

Going from `CCc1ccc2nc(N(CCCN(C)C)C(=O)c3ccco3)sc2c1` to `CC1CCN(c2nc3ccc(C(=O)NCc4ccco4)cc3s2)CC1`, the “% Inhibition @ 10 uM” value falls from 11.7% to 4.22%.

First: CC(C)COc1cccc(C(=O)Nc2ccc(CN3CCOCC3)cc2)c1
Second: O=C(Nc1ccc(Cl)cc1)c1ccc(CN2CCOCC2)cc1
The “% Inhibition @ 10 uM” value of the first is higher: 5.63% for the first, 0.643% for the second.

First: COCCN1C(=O)c2cc(C(=O)O)ccc2C1O (stereo not shown)
Second: COCCNC(=O)c1ccc2c(Cl)c3c(nc2c1)CCCC3
The “% Inhibition @ 10 uM” value of the first is higher: 2.39% for the first, -4.62% for the second.

Going from `CC(=O)Nc1ccc(S(=O)(=O)N2CCC(C)CC2)cc1` to `O=S(=O)(c1ccc(-n2cccn2)cc1)N1CCCC2CCCCC21` (stereo not shown), the “% Inhibition @ 10 uM” value falls from 0.343% to -0.913%.

Going from `CCOC(=O)C1=C(C(F)(F)F)Nc2ncnn2C1c1ccc(OC)c(OC)c1OC` (stereo not shown) to `COc1ccc(CCN)c(OCc2ccccc2)c1OC`, the “% Inhibition @ 10 uM” value rises from 3.32% to 12.3%.

Going from `CCOC(=O)c1c(-c2cccnc2)csc1N` to `O=C1NC(c2cccnc2)c2c(-c3cccs3)n[nH]c21` (stereo not shown), the “% Inhibition @ 10 uM” value falls from -2.18% to -3.35%.

First: CCc1ccc(CNC(=O)C2CCN(c3nn4cc(-c5ccc(C)cc5)nc4s3)CC2)cc1
Second: Cc1ccc(-c2cn3nc(N4CCC(C(=O)N5CCOCC5)CC4)sc3n2)cc1
The “% Inhibition @ 10 uM” value of the first is lower: -1.41% for the first, 2.37% for the second.

First: CCC(C)NC(=O)c1ccccc1NS(=O)(=O)c1ccc(Br)s1 (stereo not shown)
Second: O=C(c1ccccc1NS(=O)(=O)Cc1ccccc1Cl)N1CCCCC1
The “% Inhibition @ 10 uM” value of the first is lower: -1.27% for the first, 0.145% for the second.

Compared with `Cc1ccc(-c2cn3cc(Cl)ccc3n2)cc1`, `Cc1cc(-c2ccccc2)nc2cc(C(=O)Nc3cc(Cl)ccc3Cl)nn12` is lower in “% Inhibition @ 10 uM” value: -1.25% for the first, -1.66% for the second.

First: O=C(Nc1nc(C2COc3ccccc3O2)cs1)c1cccc(Br)c1 (stereo not shown)
Second: O=C(Nc1c(C(=O)N2CCOCC2)cnn1-c1ccccc1)c1ccc(Br)cc1
The “% Inhibition @ 10 uM” value of the first is higher: -1.71% for the first, -11.3% for the second.

First: COc1ccc(Cl)cc1-c1ccc(/C=C(\C#N)c2nn(CCO)c(N)c2C#N)o1
Second: Cc1cc(Cl)ccc1OCC(=O)Nc1ccc(Br)cc1
The “% Inhibition @ 10 uM” value of the first is higher: 3.34% for the first, 0.907% for the second.

First: O=c1c2c([nH]c(=S)n1CC1CCCCC1)-c1ccccc1CC21CCCCC1
Second: O=C(NC1CCCCCC1)c1cc(-c2ccco2)[nH]n1
The “% Inhibition @ 10 uM” value of the first is higher: 4.57% for the first, -2.18% for the second.

Compared with `COc1cc(OC)cc(C(=O)Nc2nc(-c3nnn(-c4ccc(F)cc4C)c3C)ns2)c1`, `COc1cc(OC)cc(-c2cc3nc(C)c(CCC(=O)Nc4cccnc4)c(C)n3n2)c1` is higher in “% Inhibition @ 10 uM” value: -3.02% for the first, -2.25% for the second.

Compared with `CN(Cc1ccccc1)S(=O)(=O)c1ccc(NC(=O)c2ccccc2Cl)cc1`, `CCN(Cc1ccccc1)c1nc2c(S(=O)(=O)c3ccccc3)nnn2c2ccsc12` is lower in “% Inhibition @ 10 uM” value: 1.29% for the first, -5.88% for the second.

Going from `O=C(O)C1CCCCC1C(=O)Nc1ccccn1` (stereo not shown) to `O=C(COc1ccc(C2C3=C(O)CCCC3=NC3=C2C(=O)CCC3)cc1Cl)Nc1ccccc1` (stereo not shown), the “% Inhibition @ 10 uM” value rises from 0.64% to 2.38%.

Going from `CC(C)NC(=O)c1cc(Cl)ccc1NC(=O)c1ccco1` to `CCc1c(C)sc(NC(=O)c2ccco2)c1C#N`, the “% Inhibition @ 10 uM” value rises from -4.59% to 7.1%.

Going from `COc1ccc(N2C(=O)CC(N3CCN(c4cccc(Cl)c4)CC3)C2=O)cc1` (stereo not shown) to `COc1cccc(CN2CCN(Cc3ccc(Cl)cc3)CC2)c1`, the “% Inhibition @ 10 uM” value falls from -3.72% to -9.65%.

First: COc1c(Br)cc2c(C)c(C(=O)N3CCOCC3)oc2c1Br
Second: CCOC(=O)N1CCN(C(=O)c2ccc(CS(=O)(=O)c3ccccc3OC)o2)CC1
The “% Inhibition @ 10 uM” value of the first is lower: -3.58% for the first, -1.28% for the second.

First: CCC(Sc1nc2ccccc2c2nc(CCn3nc(C)cc3C)nn12)C(=O)NCCCOC (stereo not shown)
Second: CCOc1ccc(C2Nn3c(nnc3-c3ccccc3)SC2C(=O)NCCOC)cc1 (stereo not shown)
The “% Inhibition @ 10 uM” value of the first is lower: -2.21% for the first, -1.72% for the second.

First: COc1ccc(OC)c(-n2cnc3cc(C(=O)NCc4ccccc4)ccc32)c1
Second: COc1ccc(C2C(=O)N(CCc3ccccc3)CC(=O)N2CCc2ccc(OC)c(OC)c2)cc1 (stereo not shown)
The “% Inhibition @ 10 uM” value of the first is lower: -7.57% for the first, -2.26% for the second.

First: COc1ccc(C(=O)Nc2nc(C)cs2)c(OC)n1
Second: COc1ccc(C(=O)Nc2sc3c(c2C(N)=O)CCC(C)C3)c(OC)c1 (stereo not shown)
The “% Inhibition @ 10 uM” value of the first is higher: 5.01% for the first, -18.6% for the second.

Going from `Cc1ccnc(NC(=O)c2ccc(C)cc2C)c1` to `Cc1ccc2c(c1)-c1c(cnn1CC(=O)NCCN(C)C)CO2`, the “% Inhibition @ 10 uM” value rises from 1.94% to 19.3%.

First: O=C1NC(=O)C(CCc2ccncc2)(Cc2ccc(Cl)cc2)C(=O)N1
Second: O=C1NC(=O)/C(=C\c2cn(Cc3ccccc3F)c3ccccc23)N1
The “% Inhibition @ 10 uM” value of the first is lower: -3.04% for the first, 2.17% for the second.

First: CCOC(=O)C1CCCN(Cc2ccc(OC)c(C)c2C)C1 (stereo not shown)
Second: COc1ccc(CN2CCCN(C)CC2)c(OC)c1
The “% Inhibition @ 10 uM” value of the first is higher: 3.1% for the first, -2.03% for the second.

Compared with `O=C(O)C12CC3CC(CC(O)(C3)C1)C2`, `Cc1cccc(-c2noc(CN(C(=O)C34CC5CC(CC(C5)C3)C4)C(C)C)n2)c1` is higher in “% Inhibition @ 10 uM” value: 0.716% for the first, 2.78% for the second.

Compared with `NS(=O)(=O)c1ccc(CCNCc2cccs2)cc1`, `O=C1C=C(c2ccccc2)OC(c2ccc([N+](=O)[O-])cc2)O1` (stereo not shown) is higher in “% Inhibition @ 10 uM” value: 0.032% for the first, 5.69% for the second.

First: COc1cccc2c1Oc1ncccc1N(C(=O)CCC(=O)NCCCc1ccccc1)C2
Second: COc1ccc(OCC(=O)Nc2ccccc2)cc1
The “% Inhibition @ 10 uM” value of the first is higher: 2.18% for the first, -3.39% for the second.

First: CCOC(=O)c1ccc(-n2cc(-c3ccc(OCC)cc3)nc2S)cc1
Second: COc1ccc(-n2c(SCC(=O)NCC3CCCO3)nc3c4ccccc4nc-3c2O)cc1 (stereo not shown)
The “% Inhibition @ 10 uM” value of the first is higher: 30.2% for the first, -2.12% for the second.

Going from `Oc1ccc(-c2cnc3ccccc3n2)cc1O` to `COc1ccc([C@@H](O)[C@@H](N)c2ccccc2)cc1`, the “% Inhibition @ 10 uM” value rises from 1.02% to 5.84%.

First: CS(=O)(=O)C1=NSC2=NC(=O)/C(=C\c3cn(Cc4ccccc4)c4ccccc34)C(=N)N21
Second: Cc1ccc2nc3c(cc(C(N)=O)c(=N)n3Cc3cccnc3)c(=O)n2c1
The “% Inhibition @ 10 uM” value of the first is higher: 1.85% for the first, -1.47% for the second.

First: FC(F)(F)c1ccc(CN2CCOCC2)cc1
Second: Cc1ccc(CN2CCN(c3ncccn3)CC2)s1
The “% Inhibition @ 10 uM” value of the first is lower: -4.28% for the first, -2.95% for the second.

First: CCn1c(C(=O)N2CCC(C(=O)NCc3ccc4c(c3)OCO4)CC2)cc2sccc21
Second: COc1cccc(CNC(=O)C2CCN(S(=O)(=O)N3CCC4(CC3)OCCO4)CC2)c1
The “% Inhibition @ 10 uM” value of the first is higher: 2.23% for the first, -2.99% for the second.

First: C=CCn1c(N2CCOCC2)nc2c1c(=O)n(C)c(=O)n2C
Second: Cc1[nH]c(=O)n(C)c(=O)c1S(=O)(=O)N(C)Cc1ccccc1
The “% Inhibition @ 10 uM” value of the first is lower: -2.84% for the first, 4.61% for the second.

First: Cc1ccc(C(=O)N2CCN(C(=O)CN3CCCC3)C2)cc1
Second: Cc1cc(OCC(O)CN2CCC(C)CC2)ccc1C(C)C (stereo not shown)
The “% Inhibition @ 10 uM” value of the first is higher: 4.3% for the first, -2.35% for the second.

Compared with `CC(C)NC(=O)C1c2ccccc2C(=O)N(C)C1c1cccs1` (stereo not shown), `Cc1cc(N2C(N)=C(C#N)C(c3cc(Cn4cnc5ccccc54)cs3)C3=C2CCCC3=O)no1` (stereo not shown) is higher in “% Inhibition @ 10 uM” value: -2.97% for the first, -0.92% for the second.
